Measurements reported in patent publication US20190125701A1 (priority 2016, published 2019).

Test system: mCMV
Assay type: in vivo, mouse

Structure (SMILES): CCCC(C(N)=O)C(C)CC (centres unmarked) [SPD, 3-methyl-2-propylpentanamide]
- body weight reduction versus control mice (mouse, in vivo): 20%
- survival of infected pups (same schedule, survival at PND 30, […]): 67%
